# Results taken from PubChem BioAssay AID463173 (ICCB-Longwood Screening Facility, Harvard Medical School, 2010).
# About 4,300 (8.3%) of roughly 52,000 compounds were called active. No stated cut-off is given here; in the data, active means survival mostly below about 52% (no sharp cut-off); inactive means mostly above about 56%. The list shows a part of the results.
# Test system: DeltatarO mutant
# Experiment: growth inhibition of S. aureus wild type versus tarO mutant, primary screen, teichoic acid synthesis inhibitors, RN4220, OD600 (AID 463173)
# Details: OD600, 18 h, active compounds read low, screened at 18.75 µg/mL (by protocol)
row,SMILES,survival
1,CN1Cc2ccccc2CC1C(=O)O (configuration not stated),inactive: 100%
2,COc1ccc(C(=O)Nc2ccc3c(c2)CCCN3S(=O)(=O)c2ccc(C)cc2)c(OC)c1,inactive: 67%
3,O=C(O)c1ccccc1C(=O)NC1=NN(c2ccccc2)CC1,inactive: 73%
4,CCc1ccc(S(=O)(=O)c2cn(C)c3cc(N4CCCC4)c(F)cc3c2=O)cc1,inactive: 78%
5,COc1ccc(S(=O)(=O)N2CCN(Cc3nc4ccc(C)cc4o3)CC2)cc1,inactive: 84%
6,CC1Cc2ccccc2N1C(=O)Cn1c(-c2cccnc2)ccc(C#N)c1=O (configuration not stated),inactive: 87%
7,O=C(Cn1c(=O)n(Cc2nc(-c3ccccc3)no2)c(=O)c2ccccc21)Nc1cccc(Cl)c1,inactive: 80%
8,Cc1ccc(C)c(Nc2nnc(-c3ccc(C)c(S(=O)(=O)NCC4CCCO4)c3)c3ccccc23)c1 (configuration not stated),inactive: 72%
9,O=C1CCc2cc(S(=O)(=O)NC(C(=O)Nc3cccc(F)c3)c3ccccc3)ccc2N1 (configuration not stated),inactive: 94%
10,COc1ccc(-c2c(C)c3ccc(O)c(CN4CCCC(C)C4)c3oc2=O)cc1OC (configuration not stated),inactive: 74%
11,CC(C)C1Oc2cc3oc(=O)ccc3cc2/C1=N\NC(N)=S (configuration not stated),inactive: 111%
12,CCOc1ccc(N2C(=O)c3[nH]nc(-c4ccc(OC)cc4)c3C2c2cccs2)cc1 (configuration not stated),inactive: 68%
13,COc1ccc(-c2nnc(SCC(=O)Nc3ccc(C)c(C)c3)s2)cc1,inactive: 79%
14,Oc1ccccc1Nc1nc2ccccc2n2nnnc12,inactive: 80%
15,O=C(NCc1ccc(Cl)cc1)c1ccc(Cn2c(=O)c3cccn3c3cccnc32)cc1,inactive: 49%
16,O=C1NC(NS(=O)(=O)c2ccccc2)(C(F)(F)F)C(=O)N1c1ccc(F)cc1 (configuration not stated),inactive: 81%
17,Cc1cc(N2CCC(C(=O)N(CC(C)C)CC(C)C)CC2)n2nc(C)c(-c3ccc(Cl)cc3)c2n1,inactive: 83%
18,CCc1ccccc1NC(=O)CCCN1C(=O)CCn2nc(-c3cn(C)c4ccccc34)cc21,inactive: 130%
19,COc1cc(Nc2nc(SCc3ccccc3Cl)nc3ccccc23)cc(OC)c1,inactive: 101%

row,SMILES,survival
1,COc1cccc(NC(=O)c2oc3ccccc3c2NC(=O)C2CCCCC2)c1,inactive: 66%
2,COc1ccc(C(=O)/C=C/c2cn(CC(O)CN3CCc4ccccc43)c3ccccc23)cc1 (configuration not stated),inactive: 58%
3,S=c1sc2ccccc2n1CN1CCCCC1,inactive: 95%
4,CCOCc1cc(CN2CCN(c3ccccc3OC)CC2)c(O)c2ncccc12,inactive: 109%
5,COC(=O)c1cc(NC(=O)c2cc3sccc3n2Cc2ccc(Cl)cc2)cc(C(=O)OC)c1,inactive: 84%
6,CCOc1ccc(NC(=O)CSc2oc(-c3ccccc3)nc2S(=O)(=O)c2ccc(Cl)cc2)cc1,inactive: 161%
7,CCOC(=O)N1CCN(Cc2nc3cc(NC(=O)c4cccc(C)c4)ccc3n2C(C)C)CC1,inactive: 70%
8,Cn1c(CC(=O)Nc2ccccc2)n[nH]c1=S,inactive: 82%
9,O=C(CCn1ccc2cc(S(=O)(=O)N3CCCC3)ccc21)NCc1ccccc1F,inactive: 94%
10,Cc1ccc(S(=O)(=O)c2nnn3c2nc(NCc2cccs2)c2sccc23)cc1,inactive: 128%
11,CCn1nc(C)c2c(-c3ccccc3)cc(=O)n(C(C)C(=O)NCc3ccccc3OC)c21 (configuration not stated),inactive: 75%
12,O=C(c1cnn(-c2ccc(F)cc2)c1-n1cccc1)N1CCN(c2ccc(Cl)cc2)CC1,inactive: 75%
13,O=C(Cc1ccccc1)N=Nc1c(O)[nH]c2ccccc12,inactive: 91%
14,Cc1cc(C)cc(OCc2cc(=O)n3c(-c4ccccc4)csc3n2)c1,inactive: 55%
15,COc1ccccc1C1C=C(c2ccc(C(C)C)cc2)Nc2nnnn21 (configuration not stated),inactive: 79%
16,Cc1cccc(CNC(=O)c2ccc3c(c2)c(C)c(C)n3Cc2ccccc2)c1,inactive: 78%
17,COc1ccccc1NC(=O)Cn1c(=O)c(CNc2ccccc2)cc2cc(OC)c(OC)cc21,inactive: 92%
18,COc1cc(OC)cc(-c2nc3nc(C)c(CCC(=O)Nc4ccc(C)cc4C)c(C)n3n2)c1,inactive: 74%
19,O=C1CCc2cc(S(=O)(=O)NCc3ccccc3Cl)cc3c2N1CC3,inactive: 54%

row,SMILES,survival
1,CCOC(=O)c1ccc(NC(=O)NC2CC3CCC(C2)N3Cc2nnnn2Cc2ccco2)cc1 (configuration not stated),inactive: 70%
2,O=S(=O)(c1ccccc1)c1nnn2c1nc(NCc1ccc(Cl)cc1)c1sccc12,inactive: 83%
3,CCOC(=O)c1c(NC(=O)COc2cccc(C)c2C)sc(C(C)=O)c1C,inactive: 130%
4,COc1ccc(N2CCN(C(c3ccccc3F)c3sc4nc(-c5ccco5)nn4c3O)CC2)cc1 (configuration not stated),inactive: 80%
5,COc1ccc(Cl)cc1NC(=O)Cn1c(=O)c(-c2ccccc2NC(C)=O)nc2ccccc21,inactive: 103%
6,COC(=O)c1ccccc1NC(=O)Cn1c(=O)cc(C)c2c(C)nn(C)c21,inactive: 82%
7,Cc1cc(C)c2c(c1)c(C)cc1nnc(SCC(=O)c3ccc(F)cc3)n12,inactive: 63%
8,CCCCC(=O)N1CCc2cc(OC)c(OC)cc2C1COc1ccc(OC)cc1 (configuration not stated),inactive: 102%
9,Fc1ccc(CSc2nncn2NCc2ccc3c(c2)OCO3)cc1,inactive: 74%
10,Cc1ccc(C)c(Cn2c(C(=O)O)c(CNCc3cccs3)c3ccccc32)c1,inactive: 79%
11,Cc1cccc(C(=O)Nc2ccc3nc(SCCOc4ccccc4)sc3c2)c1,inactive: 85%
12,COc1ccc(CCNc2nc(SCc3ccc(Cl)cc3)nc3ccccc23)cc1OC,inactive: 95%
13,Nc1ncc(S(=O)(=O)Nc2ccc(F)cc2F)cn1,inactive: 84%
14,COc1ccc(C2C=C(c3ccccc3)Nc3nc(NC(=O)/C=C/c4ccccc4Cl)nn32)cc1 (configuration not stated),inactive: 96%
15,CCc1cnc2c(c1SCC(=O)NCc1ccc(F)cc1)c(=O)n(C)c(=O)n2C,inactive: 119%
16,N#CC1(c2ccccc2)CCCN1C(=O)c1ccco1 (configuration not stated),inactive: 58%
17,Nc1c(C(=O)Nc2cccc(F)c2)c2ccccn2c1C(=O)c1ccccc1,inactive: 78%
18,CC(=O)c1ccc(NC(=O)CN(C)S(=O)(=O)c2cnc[nH]2)cc1,inactive: 100%
19,Cc1cc(Cl)ccc1OCC(=O)N1CCC(c2nc3ccccc3s2)CC1,active: 21%
